Some of the results follow.
Columns and labels:
Experiment in all cases: glycan array binding signal (z-score within array); higher = stronger binding
Details in all cases: glycan notation: IUPAC condensed, linker removed
[1] = biological target: Gal(b1-4)GlcNAc(b1-2)Man(a1-6)Man(b1-4)GlcNAc(b1-4)GlcNAc
Outline: (§1)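 From the Consortium for Functional Glycomics database, 3228 arrays were curated, keeping only those whose protein sequence was available. Binding is given as a within-array Z-score averaged across arrays sharing a protein sequence and across linkers. Negative Z-scores can be read as non-binding.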

[2] = biological target: Gal(b1-4)GlcNAc(b1-2)Man(a1-6)[GlcNAc(b1-2)Man(a1-3)]Man(b1-4)GlcNAc(b1-4)GlcNAc
Outline: as §1

[3] = biological target: Gal(b1-4)GlcNAc(b1-2)Man(a1-6)[Man(a1-3)]Man(b1-4)GlcNAc(b1-4)GlcNAc
Outline: as §1

[4] = biological target: Gal(b1-4)GlcNAc(b1-2)[Gal(b1-4)GlcNAc(b1-4)]Man(a1-3)[Gal(b1-4)GlcNAc(b1-2)Man(a1-6)]Man(b1-4)GlcNAc(b1-4)GlcNAc
Outline: as §1

[5] = biological target: Gal(b1-4)GlcNAc(b1-2)[Gal(b1-4)GlcNAc(b1-4)]Man(a1-3)[Gal(b1-4)GlcNAc(b1-2)[Gal(b1-4)GlcNAc(b1-6)]Man(a1-6)]Man(b1-4)GlcNAc(b1-4)GlcNAc
Outline: as §1

[6] = biological target: Gal(b1-4)GlcNAc(b1-2)[Gal(b1-4)GlcNAc(b1-4)]Man(a1-3)[GlcNAc(b1-4)][Gal(b1-4)GlcNAc(b1-2)Man(a1-6)]Man(b1-4)GlcNAc(b1-4)GlcNAc
Outline: as §1

[7] = biological target: Gal(b1-4)GlcNAc(b1-2)[Gal(b1-4)GlcNAc(b1-4)]Man(a1-3)[GlcNAc(b1-4)][Gal(b1-4)GlcNAc(b1-2)[Gal(b1-4)GlcNAc(b1-6)]Man(a1-6)]Man(b1-4)GlcNAc(b1-4)GlcNAc
Outline: as §1

[8] = biological target: Gal(b1-4)GlcNAc(b1-2)[Gal(b1-4)GlcNAc(b1-6)]Man(a1-6)[Gal(b1-4)GlcNAc(b1-2)Man(a1-3)]Man(b1-4)GlcNAc(b1-4)GlcNAc
Outline: as §1

[9] = biological target: Gal(b1-4)GlcNAc(b1-2)[Gal(b1-4)GlcNAc(b1-6)]Man(a1-6)[Gal(b1-4)GlcNAc(b1-2)Man(a1-3)]Man(b1-4)GlcNAc(b1-4)[Fuc(a1-6)]GlcNAc
Outline: as §1

[10] = biological target: Gal(b1-4)GlcNAc(b1-2)[Gal(b1-4)GlcNAc(b1-6)]Man(a1-6)[GlcNAc(b1-4)][Gal(b1-4)GlcNAc(b1-2)Man(a1-3)]Man(b1-4)GlcNAc(b1-4)GlcNAc
Outline: as §1

[11] = biological target: Gal(b1-4)GlcNAc(b1-2)[Gal(b1-4)GlcNAc(b1-6)]Man(a1-6)[GlcNAc(b1-4)][Gal(b1-4)GlcNAc(b1-2)[Gal(b1-4)GlcNAc(b1-4)]Man(a1-3)]Man(b1-4)GlcNAc(b1-4)[Fuc(a1-6)]GlcNAc
Outline: as §1

[12] = biological target: Gal(b1-4)GlcNAc(b1-3)Gal(b1-3)GalNAc
Outline: as §1

[13] = biological target: Gal(b1-4)GlcNAc(b1-3)Gal(b1-3)GlcNAc
Outline: as §1

[14] = biological target: Gal(b1-4)GlcNAc(b1-3)Gal(b1-4)Glc
Outline: as §1

[15] = biological target: Gal(b1-4)GlcNAc(b1-3)Gal(b1-4)GlcNAc
Outline: as §1

[16] = biological target: Gal(b1-4)GlcNAc(b1-3)Gal(b1-4)GlcNAc(b1-2)Man(a1-3)[Gal(b1-4)GlcNAc(b1-3)Gal(b1-4)GlcNAc(b1-2)Man(a1-6)]Man(b1-4)GlcNAc(b1-4)GlcNAc
Outline: as §1

[17] = biological target: Gal(b1-4)GlcNAc(b1-3)Gal(b1-4)GlcNAc(b1-2)Man(a1-3)[Gal(b1-4)GlcNAc(b1-3)Gal(b1-4)GlcNAc(b1-2)Man(a1-6)]Man(b1-4)GlcNAc(b1-4)[Fuc(a1-6)]GlcNAc
Outline: as §1

[18] = biological target: Gal(b1-4)GlcNAc(b1-3)Gal(b1-4)GlcNAc(b1-2)[Gal(b1-4)GlcNAc(b1-3)Gal(b1-4)GlcNAc(b1-6)]Man(a1-6)[Gal(b1-4)GlcNAc(b1-3)Gal(b1-4)GlcNAc(b1-2)Man(a1-3)]Man(b1-4)GlcNAc(b1-4)GlcNAc
Outline: as §1

[19] = biological target: Gal(b1-4)GlcNAc(b1-3)Gal(b1-4)GlcNAc(b1-2)[Gal(b1-4)GlcNAc(b1-3)Gal(b1-4)GlcNAc(b1-6)]Man(a1-6)[Gal(b1-4)GlcNAc(b1-3)Gal(b1-4)GlcNAc(b1-2)Man(a1-3)]Man(b1-4)GlcNAc(b1-4)[Fuc(a1-6)]GlcNAc
Outline: as §1

[20] = biological target: Gal(b1-4)GlcNAc(b1-3)Gal(b1-4)GlcNAc(b1-3)Gal(b1-4)GlcNAc
Outline: as §1

[21] = biological target: Gal(b1-4)GlcNAc(b1-3)Gal(b1-4)GlcNAc(b1-3)Gal(b1-4)GlcNAc(b1-2)Man(a1-3)[Gal(b1-4)GlcNAc(b1-3)Gal(b1-4)GlcNAc(b1-3)Gal(b1-4)GlcNAc(b1-2)Man(a1-6)]Man(b1-4)GlcNAc(b1-4)GlcNAc
Outline: as §1

[22] = biological target: Gal(b1-4)GlcNAc(b1-3)Gal(b1-4)GlcNAc(b1-3)Gal(b1-4)GlcNAc(b1-2)Man(a1-3)[Gal(b1-4)GlcNAc(b1-3)Gal(b1-4)GlcNAc(b1-3)Gal(b1-4)GlcNAc(b1-2)Man(a1-6)]Man(b1-4)GlcNAc(b1-4)[Fuc(a1-6)]GlcNAc
Outline: as §1

B1: HPA (Helix pomatia), Q575S3 (protein)
chain: MWAHLTGLLLICALSLSAAQRAQTGEIDCGSDSSWPKDPSDNPNRDNTREIVKHVTFSPQFCREPKVILSVTTLDAEHTKNLRYEARLKSVSPSGLSASCYSWHDGTIYRMKLSWLAVED
- glycan array binding signal (z-score) [1]: -0.267
- glycan array binding signal (z-score) [2]: -0.239
- glycan array binding signal (z-score) [3]: -0.248
- glycan array binding signal (z-score) [4]: -0.27
- glycan array binding signal (z-score) [5]: -0.243
- glycan array binding signal (z-score) [6]: -0.233
- glycan array binding signal (z-score) [7]: -0.247
- glycan array binding signal (z-score) [8]: -0.243
- glycan array binding signal (z-score) [9]: -0.246
- glycan array binding signal (z-score) [10]: -0.245
- glycan array binding signal (z-score) [11]: -0.252
- glycan array binding signal (z-score) [12]: -0.265
- glycan array binding signal (z-score) [13]: -0.264
- glycan array binding signal (z-score) [14]: -0.266
- glycan array binding signal (z-score) [15]: -0.262
- glycan array binding signal (z-score) [16]: -0.125
- glycan array binding signal (z-score) [17]: -0.246
- glycan array binding signal (z-score) [18]: -0.214
- glycan array binding signal (z-score) [19]: -0.225
- glycan array binding signal (z-score) [20]: -0.263
- glycan array binding signal (z-score) [21]: -0.152
- glycan array binding signal (z-score) [22]: -0.245

From the supplement of paper PMC8728848
